# Reference: PubChem BioAssay AID2675 (National Center for Advancing Translational Sciences (NCATS), 2010)
# The whole screen tested about 280,000 compounds, of which about 100 (0.036%) were called active. This list was built around the results that the source calls inconclusive (neither active nor inactive); the mix of calls is not that of the screen. The call rests on the fitted dose curve; in most records, active means well fitted inhibition curve with a large enough effect in the signal ratio, with a control signal flat (not every such curve was filed as active); inconclusive means small, poorly fitted or top-dose-only effect, or effect the other way, or a change in a side signal; inactive means no such curve, though single readings can be large or run the other way; the % refers to the signal ratio. Where the call is inconclusive, the potency comes from a doubtful curve fit. “Side channel” marks fits to a control or component signal instead of the main read-out.
# Target: Muscleblind-like protein 1 (Homo sapiens) (UniProt Q9NR56)
# Assay: qHTS Assay for Inhibitors of MBNL1-poly(CUG) RNA binding
# Settings: TR-FRET MBNL1-His/biotin-(CUG)12 binding, 665/545 ratio; series mostly up to 57.5 µM
# Outline: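 TR-FRET between His-tagged MBNL1 and biotin-(CUG)12 RNA, detected with Tb anti-His antibody (0.055 ng/ul) and streptavidin-XL665 (5 nM), 60 min at room temperature. Compounds titrated 92 nM to 58 uM; 665/545 nm ratio normalized to buffer and complex controls.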
# Potency means the concentration at half of the fitted maximal effect; tags describe the fitted curve by direction and shape or compound fluorescence and quenching.
# UniProt Q9NR56, sequence (Q9NR56 whole entry, looked up): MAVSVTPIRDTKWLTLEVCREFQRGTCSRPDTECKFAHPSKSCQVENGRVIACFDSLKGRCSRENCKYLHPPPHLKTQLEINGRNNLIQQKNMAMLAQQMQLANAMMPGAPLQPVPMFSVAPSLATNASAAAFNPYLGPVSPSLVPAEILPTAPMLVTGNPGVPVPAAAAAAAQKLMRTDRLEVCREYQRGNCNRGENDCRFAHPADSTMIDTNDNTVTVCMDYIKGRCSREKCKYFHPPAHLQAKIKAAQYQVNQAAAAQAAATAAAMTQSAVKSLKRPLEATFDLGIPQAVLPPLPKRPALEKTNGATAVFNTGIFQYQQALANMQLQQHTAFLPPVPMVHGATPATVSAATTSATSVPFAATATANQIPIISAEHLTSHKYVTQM
row,Structure (SMILES),Potency
1,CCOC(=O)CN(C(=O)CSc1nnc(C)n1-c1ccccc1)c1cccc([N+](=O)[O-])c1,"inconclusive: 25.1 µM [quencher, side channel, partial curve]"
2,COc1ccc(CNC(=O)C(NC(C)=O)C(=O)Nc2ccc(C(C)C)cc2)cc1 (stereo not given),inactive
3,COc1ccc(C(=O)NC(=S)NCc2cccnc2)cc1[N+](=O)[O-],"inconclusive: 3.98 µM [quencher, side channel, full curve]"
4,COc1ccc(C(=O)Nc2ccc(N3CCCC3)cc2)cc1OC,"inconclusive: 25.1 µM [quencher, side channel, single point]"
5,COc1ccc(-c2cc(C(F)(F)F)n3nc(C(=O)NCCN4CCOCC4)cc3n2)cc1,"inconclusive: 3.16 µM [quencher, full curve]"
6,COc1ccc(S(=O)(=O)N2CCOCC2)cc1NC(=O)CSc1nnc2c(n1)[nH]c1ccccc12,"inconclusive: 17.8 µM [quencher, side channel, partial curve]"
7,O=C(N=NC(=O)c1ccc2c(O)n(CC3CCCO3)c(O)c2c1)c1cccnc1 (stereo not given),"inconclusive: 20 µM [quencher, side channel, partial curve]"
8,O=C(N/C(=C\c1ccco1)C(=O)N1CCCC1)c1cccs1,"inconclusive: 39.8 µM [quencher, side channel, single point]"
9,O=C1c2ccccc2NC(c2ccc3c(c2)OCO3)N1O (stereo not given),inactive
10,Cc1ccc(S(=O)(=O)[N-]c2nc3ccccc3nc2-n2cc[n+](Cc3ccccc3)c2)cc1,"inconclusive: 25.1 µM [quencher, side channel, single point]"
11,Cc1cccc2c1NC(=O)C21N2CCCC2C(C(=O)c2ccc3ccccc3c2)C12C(=O)Nc1ccccc12 (stereo not given),"inconclusive: 25.1 µM [quencher, side channel, partial curve]"
12,COc1ccc(CC(=O)N2CCN(C(=O)Cc3ccc(OC)cc3)CC2)cc1,inactive
13,O=C1CSC(=Nc2cccc([N+](=O)[O-])c2)N1,"inconclusive: 28.2 µM [quencher, side channel, partial curve]"
14,Cc1ccc(S(=O)(=O)NN2C(=O)/C(=C/c3ccc(C(=O)O)cc3)SC2=S)cc1,"inconclusive: 20 µM [quencher, side channel, single point]"
15,CCOc1ccc(CC(=O)Nc2ccc(S(=O)(=O)N3CCCC3)cc2)cc1,inactive
16,CCOC(=O)N1CCC(NC(=O)C2CCCN(S(=O)(=O)c3cccc4nsnc34)C2)CC1 (stereo not given),"inconclusive: 3.16 µM [quencher, side channel, full curve]"
17,COc1cc(/C=C2/S/C(=N/S(=O)(=O)c3ccccc3)NC2=O)c([N+](=O)[O-])cc1OC,"inconclusive: 28.2 µM [quencher, side channel, partial curve]"
18,COc1cc(C(=O)c2ccccc2)c([N+](=O)[O-])cc1OC,"inconclusive: 25.1 µM [quencher, side channel, partial curve]"

row,Structure (SMILES),Potency
1,COc1ccc(C2C(C(=O)c3ccco3)=C(O)C(=O)N2c2nnc(C)s2)cc1OC (stereo not given),"inconclusive: 25.1 µM [quencher, side channel, partial curve]"
2,CCOc1ccc(CCNC(=O)CSc2cc(=O)n(C)c3ccc(Cl)cc23)cc1OCC,"inconclusive: 0.0891 µM [fluorescent, side channel, full curve]"
3,O=C(O)c1cc(-c2ccc(/C=N/Nc3ccc([N+](=O)[O-])cn3)o2)ccc1Cl,"inconclusive: 1.78 µM [quencher, side channel, full curve]"
4,Cc1c(N/C=C/C(=O)c2ccc(Cl)cc2)c(=O)n(-c2ccccc2)n1C,"inconclusive: 25.1 µM [quencher, side channel, partial curve]"
5,O=C(N/N=C/c1ccc(-c2cccc(C(F)(F)F)c2)o1)c1ccccc1O,"inconclusive: 35.5 µM [fluorescent, side channel, partial curve, poor fit]"
6,CC(=O)C1=C(O)C(=O)N(Cc2cccnc2)C1c1ccc(O)cc1 (stereo not given),inactive
7,CC(=O)NC1=NN(C(C)=O)C(c2cccc([N+](=O)[O-])c2)S1 (stereo not given),"inconclusive: 22.4 µM [quencher, side channel, partial curve]"
8,CCOC(=O)Cn1nnnc1CN(Cc1ccc(OC)cc1)Cc1cc2cc(CC)ccc2[nH]c1=O,"inconclusive: 25.1 µM [quencher, side channel, single point]"
9,CCOC(=O)N1CCN(C2=Nc3cccc4cccc2c34)CC1,"inconclusive: 20 µM [quencher, side channel, partial curve]"
10,CSc1c(-c2ccccc2)nc2ccccc2c1C(=O)O,inactive
11,CCOc1cccc(C(=O)NC(=S)Nc2ccc(Cl)cc2C(=O)O)c1,"inconclusive: 126 µM [inhibitor, partial curve]"
12,O=[N+]([O-])c1ccc(Oc2ccc(C(F)(F)F)cn2)cc1,"inconclusive: 12.6 µM [quencher, side channel, partial curve]"
13,O=C(c1ccco1)N1CCN(C(=O)c2cc3cc([N+](=O)[O-])ccc3oc2=O)CC1,"inconclusive: 11.2 µM [quencher, side channel, partial curve]"
14,NS(=O)(=O)c1ccc(N/N=C/C=C/c2ccccc2[N+](=O)[O-])cc1,"inconclusive: 15.8 µM [quencher, partial curve]"
15,Cc1ccc(S(=O)(=O)CC(=O)c2ccc([N+](=O)[O-])cc2)cc1,"inconclusive: 12.6 µM [quencher, side channel, partial curve]"
16,Cc1cccc(OCC(=O)NCC(=O)N=Nc2c(O)[nH]c3ccc([N+](=O)[O-])cc23)c1,"inconclusive: 12.6 µM [quencher, side channel, partial curve]"
17,CC(NC(=O)CC1Nc2ccccc2NC1=O)c1ccccc1 (stereo not given),"inconclusive: 39.8 µM [quencher, side channel, single point]"
